The results in this text go back to the supplement of paper PMC12217912.

B1: TEV protease; numbered along this chain (parent)
chain: MGESLFKGPRDYNPISSSICHLTNESDGHTTSLYGIGFGPFIITNKHLFRRNNGTLVVQSLHGVFKVKDTTTLQQHLVDGRDMIIIRMPKDFPPFPQKLKFREPQREERICLVTTNFQTKSMSSMVSDTSCTFPSGDGIFWKHWIQTKDGQCGSPLVSTRDGFIVGIHSASNFTNTNNYFTSVPKNFMELLTNQEAQQWVSGWRLNADSVLWGGHKVFMVKPEEPFQPVKEATQL

The list shows a part of the results. The full chains were built here from the parent and the listed change. Inactive controls read about 0.05.

In the test the parent is B1. As to the kind of experiment: raw area under fraction-flipped curve 0-4 h after induction (AUC4h, not background-subtracted), DNA-recorder readout of cleavage of the substrate (dimensionless); higher = more cleavage of the substrate by the protease variant. To be noted: temperature: 34 °C; time window: 0-4 h after rhamnose induction. The procedure: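 In vivo DNA recorder in E. coli TOP10(DE3) ΔrhaA at 34 °C. Each TEVp single-site mutant (parent TEVp 0) is paired with a single-site variant of the 7-mer TEVs (canonical ENLYFQ|S). The substrate sits between flexible linkers in a Bxb1-sfGFP-TEVs-SsrA fusion, so cleavage stabilises Bxb1 and speeds flipping of a recombination array, read by NGS. The value is the raw area under the fraction-flipped curve over 0-4 h after rhamnose induction (AUC4h), with ≥20 reads per time point. It is not background-subtracted; inactive controls average about 0.047.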
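Note: Bxb1 expression induced with 0.2% (w/v) L-rhamnose at OD600 near 0.5, cultures sampled hourly, flipped fraction per protease–substrate barcode pair counted by paired-end Illumina sequencing.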

As for MGESLFKGPRDYNPISSSICHLYNESDGHTTSLYGIGFGPFIITNKHLFRRNNGTLVVQSLHGVFKVKDTTTLQQHLVDGRDMIIIRMPKDFPPFPQKLKFREPQREERICLVTTNFQTKSMSSMVSDTSCTFPSGDGIFWKHWIQTKDGQCGSPLVSTRDGFIVGIHSASNFTNTNNYFTSVPKNFMELLTNQEAQQWVSGWRLNADSVLWGGHKVFMVKPEEPFQPVKEATQL [T23Y], the “area with substrate ENAYFQS” value was 0.0536, the “area with substrate ENCYFQS” value is 0.0608, the “area with substrate ENDYFQS” value was determined as 0.0658 and the “area with substrate ENEYFQS” value came out at 0.0677. Further, the “area with substrate ENFYFQS” value worked out at 0.0562, the “area with substrate ENGYFQS” value was determined as 0.0611, the “area with substrate ENHYFQS” value was determined as 0.056 and the “area with substrate ENIYFQS” value stood at 0.0969. Besides, the “area with substrate ENMYFQS” value was 0.0481, the “area with substrate ENNYFQS” value was 0.055, the “area with substrate ENPYFQS” value was 0.046 and the “area with substrate ENQYFQS” value was determined as 0.0568. Besides, the “area with substrate ENRYFQS” value worked out at 0.064, the “area with substrate ENSYFQS” value was 0.0494, the “area with substrate ENTYFQS” value came out at 0.0776 and the “area with substrate ENYYFQS” value worked out at 0.0512.
As to MGESLFKGPRDYNPISSSICHLNNESDGHTTSLYGIGFGPFIITNKHLFRRNNGTLVVQSLHGVFKVKDTTTLQQHLVDGRDMIIIRMPKDFPPFPQKLKFREPQREERICLVTTNFQTKSMSSMVSDTSCTFPSGDGIFWKHWIQTKDGQCGSPLVSTRDGFIVGIHSASNFTNTNNYFTSVPKNFMELLTNQEAQQWVSGWRLNADSVLWGGHKVFMVKPEEPFQPVKEATQL [T23N], the “area with substrate ENAYFQS” value turned out to be 0.0592, the “area with substrate ENCYFQS” value was determined as 0.064, the “area with substrate ENDYFQS” value stood at 0.0636 and the “area with substrate ENEYFQS” value worked out at 0.0534. For the same variant, the “area with substrate ENGYFQS” value turned out to be 0.0574, the “area with substrate ENHYFQS” value came to 0.0722, the “area with substrate ENIYFQS” value was 0.0993 and the “area with substrate ENKYFQS” value is 0.0477. The “area with substrate ENMYFQS” value was determined as 0.0617, the “area with substrate ENNYFQS” value was 0.0615, the “area with substrate ENPYFQS” value stood at 0.0558 and the “area with substrate ENRYFQS” value worked out at 0.0608. The “area with substrate ENSYFQS” value was found to be 0.0627, the “area with substrate ENTYFQS” value is 0.0544, the “area with substrate ENVYFQS” value was found to be 0.0733 and the “area with substrate ENYYFQS” value stood at 0.0553.
Take MGESLFKGPRDYNPISSSICHLCNESDGHTTSLYGIGFGPFIITNKHLFRRNNGTLVVQSLHGVFKVKDTTTLQQHLVDGRDMIIIRMPKDFPPFPQKLKFREPQREERICLVTTNFQTKSMSSMVSDTSCTFPSGDGIFWKHWIQTKDGQCGSPLVSTRDGFIVGIHSASNFTNTNNYFTSVPKNFMELLTNQEAQQWVSGWRLNADSVLWGGHKVFMVKPEEPFQPVKEATQL [T23C]: the “area with substrate ENAYFQS” value worked out at 0.0568, the “area with substrate ENCYFQS” value was 0.0532, the “area with substrate ENDYFQS” value stood at 0.0638 and the “area with substrate ENEYFQS” value came to 0.0653. The “area with substrate ENFYFQS” value turned out to be 0.0577, the “area with substrate ENHYFQS” value came to 0.0547, the “area with substrate ENIYFQS” value stood at 0.134 and the “area with substrate ENKYFQS” value was determined as 0.0619. For the same variant, the “area with substrate ENMYFQS” value turned out to be 0.0947, the “area with substrate ENNYFQS” value was 0.0643, the “area with substrate ENPYFQS” value was determined as 0.0514 and the “area with substrate ENQYFQS” value came out at 0.0545. The “area with substrate ENRYFQS” value was 0.0586, the “area with substrate ENSYFQS” value turned out to be 0.0619, the “area with substrate ENVYFQS” value was 0.0658 and the “area with substrate ENWYFQS” value amounted to 0.0564. The “area with substrate ENYYFQS” value was 0.0565.
Consider MGESLFKGPRDYNPISSSICHLLNESDGHTTSLYGIGFGPFIITNKHLFRRNNGTLVVQSLHGVFKVKDTTTLQQHLVDGRDMIIIRMPKDFPPFPQKLKFREPQREERICLVTTNFQTKSMSSMVSDTSCTFPSGDGIFWKHWIQTKDGQCGSPLVSTRDGFIVGIHSASNFTNTNNYFTSVPKNFMELLTNQEAQQWVSGWRLNADSVLWGGHKVFMVKPEEPFQPVKEATQL [T23L], for which the “area with substrate ENAYFQS” value is 0.0613, the “area with substrate ENCYFQS” value was determined as 0.063, the “area with substrate ENDYFQS” value turned out to be 0.0535 and the “area with substrate ENEYFQS” value was 0.0584. Also, the “area with substrate ENFYFQS” value came out at 0.0607, the “area with substrate ENGYFQS” value turned out to be 0.0703, the “area with substrate ENKYFQS” value was found to be 0.0571 and the “area with substrate ENMYFQS” value is 0.08. Further, the “area with substrate ENNYFQS” value was determined as 0.0473, the “area with substrate ENRYFQS” value amounted to 0.0567, the “area with substrate ENSYFQS” value worked out at 0.0619 and the “area with substrate ENTYFQS” value was found to be 0.0612. Besides, the “area with substrate ENVYFQS” value was found to be 0.0711, the “area with substrate ENWYFQS” value was 0.056 and the “area with substrate ENYYFQS” value was 0.068.
MGESLFKGPRDYNPISSSICHPTNESDGHTTSLYGIGFGPFIITNKHLFRRNNGTLVVQSLHGVFKVKDTTTLQQHLVDGRDMIIIRMPKDFPPFPQKLKFREPQREERICLVTTNFQTKSMSSMVSDTSCTFPSGDGIFWKHWIQTKDGQCGSPLVSTRDGFIVGIHSASNFTNTNNYFTSVPKNFMELLTNQEAQQWVSGWRLNADSVLWGGHKVFMVKPEEPFQPVKEATQL [L22P]: the “area with substrate ENAYFQS” value turned out to be 0.0396, the “area with substrate ENCYFQS” value was 0.0628, the “area with substrate ENDYFQS” value was 0.0454 and the “area with substrate ENEYFQS” value amounted to 0.0394. For the same variant, the “area with substrate ENFYFQS” value amounted to 0.0539, the “area with substrate ENGYFQS” value amounted to 0.0647, the “area with substrate ENHYFQS” value worked out at 0.0481 and the “area with substrate ENIYFQS” value is 0.0514. In addition, the “area with substrate ENMYFQS” value was 0.0428, the “area with substrate ENNYFQS” value worked out at 0.0449, the “area with substrate ENPYFQS” value came to 0.0403 and the “area with substrate ENQYFQS” value worked out at 0.0462. Moreover, the “area with substrate ENRYFQS” value was determined as 0.0468, the “area with substrate ENSYFQS” value came out at 0.0543, the “area with substrate ENTYFQS” value was 0.0583 and the “area with substrate ENWYFQS” value stood at 0.0366. For the same variant, the “area with substrate ENYYFQS” value is 0.0463.
As for MGESLFKGPRDYNPISSSICHETNESDGHTTSLYGIGFGPFIITNKHLFRRNNGTLVVQSLHGVFKVKDTTTLQQHLVDGRDMIIIRMPKDFPPFPQKLKFREPQREERICLVTTNFQTKSMSSMVSDTSCTFPSGDGIFWKHWIQTKDGQCGSPLVSTRDGFIVGIHSASNFTNTNNYFTSVPKNFMELLTNQEAQQWVSGWRLNADSVLWGGHKVFMVKPEEPFQPVKEATQL [L22E], the “area with substrate ENAYFQS” value worked out at 0.0367, the “area with substrate ENCYFQS” value worked out at 0.022, the “area with substrate ENDYFQS” value was 0.0517 and the “area with substrate ENEYFQS” value came out at 0.0501. In addition, the “area with substrate ENFYFQS” value was 0.0503, the “area with substrate ENGYFQS” value came out at 0.045, the “area with substrate ENHYFQS” value came to 0.0479 and the “area with substrate ENIYFQS” value was found to be 0.0736. For the same variant, the “area with substrate ENKYFQS” value stood at 0.054, the “area with substrate ENMYFQS” value came to 0.0482, the “area with substrate ENNYFQS” value is 0.0526 and the “area with substrate ENPYFQS” value was 0.0452. For the same variant, the “area with substrate ENQYFQS” value turned out to be 0.0477, the “area with substrate ENRYFQS” value is 0.0429, the “area with substrate ENSYFQS” value is 0.0462 and the “area with substrate ENTYFQS” value is 0.0415. Also, the “area with substrate ENVYFQS” value turned out to be 0.0478 and the “area with substrate ENYYFQS” value was found to be 0.0455.
Turning to MGESLFKGPRDYNPISSSICHLTNYSDGHTTSLYGIGFGPFIITNKHLFRRNNGTLVVQSLHGVFKVKDTTTLQQHLVDGRDMIIIRMPKDFPPFPQKLKFREPQREERICLVTTNFQTKSMSSMVSDTSCTFPSGDGIFWKHWIQTKDGQCGSPLVSTRDGFIVGIHSASNFTNTNNYFTSVPKNFMELLTNQEAQQWVSGWRLNADSVLWGGHKVFMVKPEEPFQPVKEATQL [E25Y], the “area with substrate ENAYFQS” value is 0.062, the “area with substrate ENCYFQS” value came out at 0.0554, the “area with substrate ENDYFQS” value was 0.0627 and the “area with substrate ENEYFQS” value amounted to 0.0601. The “area with substrate ENFYFQS” value was 0.0698, the “area with substrate ENGYFQS” value stood at 0.061, the “area with substrate ENHYFQS” value came out at 0.0601 and the “area with substrate ENIYFQS” value stood at 0.102. Besides, the “area with substrate ENKYFQS” value was 0.0539, the “area with substrate ENMYFQS” value came to 0.0522, the “area with substrate ENNYFQS” value turned out to be 0.0513 and the “area with substrate ENQYFQS” value was determined as 0.0583. Moreover, the “area with substrate ENRYFQS” value came to 0.0635, the “area with substrate ENSYFQS” value was 0.0576, the “area with substrate ENTYFQS” value was 0.0676 and the “area with substrate ENVYFQS” value is 0.0691. Besides, the “area with substrate ENWYFQS” value was determined as 0.0265.
As for MGESLFKGPRDYNPISSSICHLTNWSDGHTTSLYGIGFGPFIITNKHLFRRNNGTLVVQSLHGVFKVKDTTTLQQHLVDGRDMIIIRMPKDFPPFPQKLKFREPQREERICLVTTNFQTKSMSSMVSDTSCTFPSGDGIFWKHWIQTKDGQCGSPLVSTRDGFIVGIHSASNFTNTNNYFTSVPKNFMELLTNQEAQQWVSGWRLNADSVLWGGHKVFMVKPEEPFQPVKEATQL [E25W], the “area with substrate ENAYFQS” value is 0.0693, the “area with substrate ENCYFQS” value was 0.0651, the “area with substrate ENDYFQS” value stood at 0.0523 and the “area with substrate ENEYFQS” value came out at 0.0559. Also, the “area with substrate ENFYFQS” value stood at 0.0506, the “area with substrate ENGYFQS” value worked out at 0.0566, the “area with substrate ENHYFQS” value was determined as 0.0765 and the “area with substrate ENIYFQS” value worked out at 0.113. Besides, the “area with substrate ENKYFQS” value is 0.0511, the “area with substrate ENMYFQS” value stood at 0.0734, the “area with substrate ENNYFQS” value turned out to be 0.0644 and the “area with substrate ENQYFQS” value was found to be 0.05. In addition, the “area with substrate ENRYFQS” value is 0.0507, the “area with substrate ENSYFQS” value was 0.0603, the “area with substrate ENTYFQS” value came out at 0.0558 and the “area with substrate ENVYFQS” value was 0.0757. Further, the “area with substrate ENWYFQS” value stood at 0.0498.
